# PMC12526058, “1,2,4-Thiadiazolidin-3,5-Diones as Inhibitors of Cysteine Proteases” (Molecules, 2025)
# Molecular target: Bromelain (Ananas comosus, UniProt P14518)
# Assay: Bromelain inhibition (Z Arg-Arg-MCA substrate)
# Assay type: biochemical
# Conditions: pre-incubation during 10 min, 50 mM sodium acetate, 1 mM EDTA, pH 5.0
# Sequence of UniProt P14518 (P14518 whole entry): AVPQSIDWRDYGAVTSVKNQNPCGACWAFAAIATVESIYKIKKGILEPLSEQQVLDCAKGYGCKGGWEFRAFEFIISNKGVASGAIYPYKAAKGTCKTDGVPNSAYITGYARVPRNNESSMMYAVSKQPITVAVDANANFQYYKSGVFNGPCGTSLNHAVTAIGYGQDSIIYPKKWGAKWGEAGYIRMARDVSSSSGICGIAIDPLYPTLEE
row,Compound,IC50 [nM]
1,COc1ccc(-n2sc(=O)n(-c3ccc(Cl)cc3)c2=O)cc1 [THIA-7],2000 ± 100

# Molecular target: T1, Cathepsin L (Homo sapiens, UniProt P07711)
# T1 construct: made in house; host or cells: Pichia pastoris
# Assay: Cathepsin L inhibition, IC50 (Z-Phe-Arg-MCA substrate, 10 min pre-incubation)
# Assay type: biochemical
# Conditions: 30 °C, 100 mM sodium acetate, 1 mM EDTA, pH 5.0, Cathepsin L 6.7 nM
# Protocol: Recombinant human Cathepsin L was expressed in Pichia pastoris following the previously described procedures. The enzyme and substrate were used under the following conditions: 100 mM sodium acetate buffer containing 1 mM EDTA, pH 5.0, with substrate Z Phe-Arg-MCA.
# The activities of Cathepsin L and Papain were assessed using Z-Phe-Arg-MCA.
Compound,IC50 [nM],IC50 for inhibition of Cathepsin L
O=c1sn(-c2ccc(F)cc2)c(=O)n1-c1ccccc1 [THIA-10],330 ± 30,–
COc1ccc(-n2sc(=O)n(-c3ccccc3)c2=O)cc1 [THIA-4],400 ± 50,–
COc1ccc(-n2sc(=O)n(C3CCCCC3)c2=O)cc1 [THIA-8],27000 ± 2000,in the μM range
COc1ccc(-n2sc(=O)n(-c3ccc(C)cc3)c2=O)cc1 [THIA-5],150 ± 10,–
O=c1sn(-c2ccccc2)c(=O)n1-c1ccccc1 [THIA-3],120 ± 10,–
COc1ccc(-n2sc(=O)n(Cc3ccccc3)c2=O)cc1 [THIA-2],21000 ± 2000,in the μM range
COc1ccc(-n2sc(=O)n(-c3ccc(Cl)cc3)c2=O)cc1 [THIA-7],420 ± 50,in the nanomolar range
COc1ccc(-n2sc(=O)n(-c3ccc(OC)cc3)c2=O)cc1 [THIA-6],350 ± 20,–
Cc1ccc(-n2sc(=O)n(-c3ccccc3)c2=O)cc1 [THIA-9],210 ± 10,–
O=c1sn(-c2ccccc2)c(=O)n1Cc1ccccc1 [THIA-1],14000 ± 1000,in the μM range
